PubChem BioAssay AID588795 (National Center for Advancing Translational Sciences (NCATS), 2011)
“And” between values parts separate entries of the source, which are not always exact repeats. Identical values can stand only once. Among all 390,000 compounds or so, about 1,400 (0.36%) were called active. Inconclusive means that the source gave no clear call. Such entries were picked first, then a sample of the others. Calls follow the shape of the dose curve; as a rule, active = well fitted inhibition curve with a large enough effect; inconclusive = small, poorly fitted or top-dose-only effect; inactive = no such curve, though single readings can be large or run the other way. Potencies beside an inconclusive call are fits to weak or partial responses and may not hold up.

biological target: Flap endonuclease 1 (Homo sapiens) (UniProt P39748); assay: qHTS Assay for the Inhibitors of Human Flap endonuclease 1 (FEN1).; also: nearly all actives have a fitted effect of over 65% in size; settings: Recombinant FEN1 flap cleavage, fluorescence, 15 min; series mostly up to 114 µM
UniProt P39748, sequence (P39748 whole entry, looked up): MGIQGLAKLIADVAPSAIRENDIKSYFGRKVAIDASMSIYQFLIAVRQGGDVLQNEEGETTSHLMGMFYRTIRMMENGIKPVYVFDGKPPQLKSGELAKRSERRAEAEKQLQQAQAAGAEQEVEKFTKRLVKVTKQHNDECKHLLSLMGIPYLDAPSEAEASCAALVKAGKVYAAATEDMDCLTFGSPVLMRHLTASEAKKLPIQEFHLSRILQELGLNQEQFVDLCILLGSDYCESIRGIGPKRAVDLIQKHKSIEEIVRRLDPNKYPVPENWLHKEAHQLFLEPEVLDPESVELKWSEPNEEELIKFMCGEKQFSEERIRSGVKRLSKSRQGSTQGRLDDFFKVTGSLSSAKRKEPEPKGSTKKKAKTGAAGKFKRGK
Method in brief: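 With each library titrated from low to high concentration, compounds met 10 nM FEN1 for 15 min at room temperature before 50 nM substrate was added; readings at 0 and 15 min fed four-parameter Hill curve fits.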
Potency is read from the fitted curve at half-maximal effect; tags tell the direction and shape of the fitted curve.

| SMILES | Potency |
| --- | --- |
| O=C(C[n+]1csc2ccccc21)c1ccc(I)cc1 | inactive |
| COc1cc(C(=O)Nc2ccc3nc(N4CCOCC4)sc3c2)cc(OC)c1OC | inconclusive: 50.1 µM [inhibitor, partial curve, poor fit] |
| O=C(CSc1nc2scc(-c3ccco3)c2c(=O)n1-c1ccccc1)N1CCOCC1 | inactive |
| CC(=O)Nc1cccc(C(=O)/C=C/c2ccc(C)cc2)c1 | inactive |
| COc1ccc(CCn2c(=O)c3cccnc3n(CC(=O)Nc3ccc(C)c(F)c3)c2=O)cc1OC | inactive |
| O=C(NCc1ccccc1F)C12CC3CC(CC(C3)C1)C2 | inactive |
| CCCCn1c(N)c(Br)c(=O)[nH]c1=O | inactive |
| COc1ccccc1N1CCN(C(=O)c2cc3c(s2)-c2ccccc2OC3)CC1 | inconclusive: 35.5 µM [inhibitor, partial curve, poor fit] |
| CN(C)c1ccc(N=Cc2ccnc3ccccc23)cc1 | active: 44.7 µM |
| Cc1nc2ccccc2c2ncccc12 | inconclusive: 70.8 µM [inhibitor, partial curve, poor fit] |
| O=c1[nH]c2ccccc2n2c(-c3ccccc3)nnc12 | active: 79.4 µM and active: 20 µM |
| COc1ccccc1Nc1nc(-c2c(C)nc3ncccn23)cs1 | inconclusive: 56.2 µM [inhibitor, partial curve] |
| O=C1CC(c2ccc(O)c(O)c2)Oc2c1ccc(O)c2O (centres undefined) | active: 3.55 µM |
| CN(C)Cc1cc(O)c(CN(C)C)cc1O | inconclusive: 17.8 µM [inhibitor, full curve] |
| CCN(CC)S(=O)(=O)c1ccc(Cl)c(NC(=O)COC(=O)c2ccc([N+](=O)[O-])o2)c1 | inconclusive: 35.5 µM [inhibitor, single point] |
| O=C1C(=O)N(CCCn2ccnc2)C(c2cccc(Br)c2)/C1=C(\O)c1ccc2c(c1)OCCO2 (centres undefined) | inactive |
| CC(C(=O)O)n1c2ccccc2c2cnn(C)c(=O)c21 (centres undefined) | inconclusive: 89.1 µM [inhibitor, single point] |
| O=C(NCc1cccnc1)c1sc2cc(Cl)ccc2c1Cl | inconclusive: 89.1 µM [inhibitor, partial curve, poor fit] |
| O=C(N/N=C/c1ccc(Cl)cc1)c1sccc1OCc1ccc(F)cc1 | inconclusive: 79.4 µM [inhibitor, partial curve, poor fit] |
| CCOC(=O)C1=C(N)Oc2cc(O)ccc2C1c1ccc(Br)cc1 (centres undefined) | inconclusive: 79.4 µM [inhibitor, partial curve, poor fit] |
| C=C(Cl)COc1ccc2c(CC)cc(=O)oc2c1 | inactive |
| COCCCCOc1cc2nc(N3CCCN(C)CC3)nc(NC3CCN(C)CC3)c2cc1OC | active: 44.7 µM |

| SMILES | Potency |
| --- | --- |
| Cc1c(C(=O)O)cccc1-c1ccc(/C=C2\SC(=O)NC2=O)o1 | inconclusive: 56.2 µM [inhibitor, partial curve, poor fit] |
| Cc1ccc(CN2C(=O)SC(Nc3ccccc3)C2=O)cc1 (centres undefined) | inconclusive: 89.1 µM [inhibitor, partial curve, poor fit] |
| C[N+]1(CC(=O)c2ccc(F)cc2)CCc2ccccc2C1 (centres undefined) | inactive |
| COc1ccc(C(=O)Nc2ccc3nc(N4CCN(C)CC4)cc(C)c3c2)c(OC)c1 | inconclusive: 50.1 µM [inhibitor, partial curve] |
| CN1/C(=C\C(=O)COC(=O)C2COc3ccccc3O2)C(C)(C)c2ccccc21 (centres undefined) | inconclusive: 56.2 µM [inhibitor, partial curve, poor fit] |
| CCOC(=O)c1cnc(SCC(=O)Nc2ccc(N3CCOCC3)c(Cl)c2)nc1N | inconclusive: 89.1 µM [inhibitor, partial curve, poor fit] |
| CN(C)CCCN1c2ccccc2Sc2ccc(Cl)cc21 | inconclusive: 44.7 µM [inhibitor, partial curve, poor fit] |
| COc1ccc(-c2cc(C(=O)Nc3ccc(C#N)cc3)no2)cc1 | inactive |
| Oc1ccc(/C=N/N2CCOCC2)c(O)c1O | inconclusive: 44.7 µM [inhibitor, partial curve] |
| COc1cccc(NC(=O)c2ccc3c(c2)N(C)CCS3)c1 | inconclusive: 17.8 µM [inhibitor, partial curve, poor fit] |
| COc1cccc(NC(=O)CSc2nc(=O)n(Cc3ccccn3)c3c2CCC3)c1 | inactive |
| CCOC(=O)c1cccc(NC(=O)c2cc3cc4cc(OC)ccc4nc3s2)c1 | inconclusive: 56.2 µM [inhibitor, partial curve] |
| CCCCn1c(NC(=O)c2ccccc2Cl)c(C#N)c2nc3ccccc3nc21 | inconclusive: 89.1 µM [inhibitor, partial curve, poor fit] |
| Clc1ccc(N2CCN(Cc3c[nH]c4ncccc34)CC2)cc1 | inconclusive: 26.7 µM [inhibitor, single point] |
| Cn1c2ccccc2c(=O)c2c(=O)n(-c3ccc(F)cc3)c(-c3cccs3)nc21 | inconclusive: 8.91 µM [inhibitor, partial curve, poor fit] |
| Cc1ncc(CO)c2c1Oc1nc(-c3ccccc3)nc(SCC(=O)N3CCCCC3)c1C2 | inconclusive: 50.1 µM [inhibitor, partial curve, poor fit] |
| CN(C)c1ccc(C(=C2C=CC(=[N+](C)C)C=C2)c2ccc(N(C)C)cc2)cc1 | active: 39.8 µM |
| O=C(COc1ccccc1Cl)NC(=S)Nc1ccccc1N1CCCC1 | inconclusive: 50.1 µM [inhibitor, partial curve, poor fit] |
| O=C1NC(=S)S/C1=C\c1cccc([N+](=O)[O-])c1 | inconclusive: 89.1 µM [inhibitor, partial curve, poor fit] |
| Cc1ccc2[nH]c3c(NCc4ccccc4)ncnc3c2c1 | inconclusive: 10 µM [inhibitor, full curve, poor fit] |
| O=c1[nH]cc(N=Cc2cc(Cl)cc(Cl)c2O)c(=O)[nH]1 | inconclusive: 20 µM [inhibitor, partial curve, poor fit] |
| O=C(Nc1cccc(OC(=O)c2ccc(Br)o2)c1)c1ccccc1 | inconclusive: 56.2 µM [inhibitor, partial curve, poor fit] |
